PubChem BioAssay (NCATS)
Some of the results follow. Further columns of the screen follow, without active or inactive calls. For some of these results: Most of these compounds were active or inconclusive in the main read-out, so they are no random draw. Words in brackets tell the shape of the fitted curve; partial curves, single points and poor fits give uncertain potencies.

Tests used:
[1] = qHTS drug screen for cell cycle checkpoint inhibitors in PARPi-resistant BRCA-mutant ovarian cancer cell lines. (AID 1963452); details: PEO1/OlaR viability, CellTiter-Glo luminescence, 96 h
How it was run: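 PEO1, PEO4 and PEO1/OlaR ovarian cancer cells, 600 per well, exposed 96 h at 37C to a dilution series. Viability read by CellTiter-Glo luminescence, normalized to DMSO and empty wells; activity summarized as Z-AUC.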

[2] = qHTS for identification of novel therapeutic agents for treatment of microphthalmiaassociated transcription factor (MiT) renal cell carcinoma (RCC) (AID 1963991); details: CellTiter-Glo, 48 h; for z-score: stronger effect = lower value
How it was run: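 Three TFE3-fusion RCC cell lines (UOK109, UOK124, UOK145), 500 cells/well, were exposed to the 1912-compound MIPE 4.0 library for 48 hours at 37 C. Viability was read by CellTiter-Glo luminescence, normalised to DMSO (100%) and empty wells (0%), with 11-concentration curve fits.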

[3] = measured here: PEO1 parental viability
[4] = TFE3-RCC UOK109 viability, measured here: UOK109 Z-AUC
[5] = TFE3-RCC viability, measured here: UOK124 Z-AUC
[6] = TFE3-RCC viability, measured here: UOK124 cell viability
[7] = TFE3-RCC viability, measured here: UOK145 Z-AUC
[8] = TFE3-RCC viability, measured here: UOK145 cell viability
Tags give direction and shape of the fitted curve.

SMILES | AC50 [1, 3] | AC50 ([1]; measured here: PEO4 viability) | z-score [2, 4] | z-score [2, 5] | AC50 [2, 6] | z-score [2, 7] | AC50 [2, 8]
CC1=C(C(=O)Nc2cc3cn[nH]c3cc2F)C(c2ccc(Cl)cc2F)N=C(c2ccnc(Cl)c2)N1 (stereo not drawn) | 13.8 µM [falling, partial curve, poor fit] | 27.5 µM [falling, single point] | 1.23 | 0.335 | 16.6 µM [falling, partial curve] | 1.01 | 
COc1cccc([C@@H](C)NCCCc2ccccc2Cl)c1 | 27.5 µM [falling, single point] | 17.4 µM [falling, partial curve] | 0.67 | 0.195 |  | 0.403 | 
CCOc1cc(C(=O)Nc2ccc(Cl)c(-c3nc4ccccc4[nH]3)c2)cc(OCC)c1OCC | 6.92 µM [falling, partial curve] | 15.5 µM [falling, partial curve, poor fit] | -1.26 | 0.229 |  | -0.209 | 11.8 µM [falling, partial curve]
CCn1c(-c2nonc2N)nc2cnc(Oc3cccc(NC(=O)c4ccc(OCCN5CCOCC5)cc4)c3)cc21 | 2.75 µM [falling, full curve, poor fit] | 6.16 µM [falling, partial curve, poor fit] | 0.804 | 0.0485 |  | 0.368 | 14.8 µM [falling, partial curve]
Cc1cc(Nc2cc(NC(=O)c3c(Cl)cccc3Cl)ccn2)nc(N)n1 | 0.347 µM [falling, full curve, poor fit] | 0.174 µM [falling, full curve, poor fit] | -0.359 | -2.92 |  | -1.43 | 0.662 µM [falling, full curve]
CN(C)c1ccc(-c2nc3ncc(Cl)c(N4CCN(CC(=O)Nc5nccs5)CC4)c3[nH]2)cc1 | 12 µM [falling, single point] | 8.48 µM [falling, partial curve, poor fit] | -0.516 | -0.479 | 2.64 µM [falling, partial curve] | 0.855 | 
NC(=O)c1cccc(-c2cc(Nc3ccc(OC(F)(F)F)cc3)ncn2)c1 | 13.8 µM [falling, partial curve] | 19.5 µM [falling, single point] | 0.275 | 0.407 | 20.9 µM [falling, single point] | 0.48 | 
Cc1cc(C(C)Nc2ccccc2)c2nc(N3CCOCC3)cc(=O)n2c1 (stereo not drawn) | 27.5 µM [falling, single point] | 27.5 µM [falling, partial curve, poor fit] | -2.09 | -0.684 |  | 0.222 | 8.33 µM [falling, partial curve]
NS(=O)(=O)c1ccc(NC2=CC(=O)c3ccccc3C2=O)cc1 | 3.89 µM [falling, partial curve, poor fit] | 3.89 µM [falling, full curve] | -0.307 | -0.64 | 0.743 µM [falling, full curve] | 0.346 | 
CC(C)(Cc1ccc2ccccc2c1)NC[C@@H](O)COc1cccc(Cl)c1C#N | 17.4 µM [falling, single point] | 17.4 µM [falling, partial curve] | 0.848 | 0.912 |  | 0.58 | 
O=C(N[C@@H](c1ccccc1)[C@@H]1CCCCN1)c1cccc(C(F)(F)F)c1Cl | 27.5 µM [falling, single point] | 27.5 µM [falling, single point] | 0.696 | 0.764 |  | -0.146 | 37.2 µM [falling, partial curve, poor fit]
CCc1cc(Nc2nccc(-c3c(-c4ccc(OC)c(C(=O)Nc5c(F)cccc5F)c4)nc4ccccn34)n2)c(OC)cc1N1CCC(N2CCN(S(C)(=O)=O)CC2)CC1 | 7.76 µM [falling, partial curve] | 6.16 µM [falling, partial curve] | -0.64 | 0.271 | 37.2 µM [falling, partial curve, poor fit] | 0.49 | 
NC(=O)c1ccc(-c2nc(-c3ccc4c(c3)OCCO4)c(-c3ccccn3)[nH]2)cc1 | 17.4 µM [falling, single point] | 24.5 µM [falling, single point] | 0.839 | 0.293 |  | 0.624 | 18.7 µM [falling, partial curve, poor fit]
N#CC(c1ccc(Cl)cc1)c1c(Cl)cc(-n2ncc(=O)[nH]c2=O)cc1Cl (stereo not drawn) | 9.77 µM [falling, partial curve] | 3.47 µM [falling, full curve, poor fit] | 0.156 | 0.446 |  | 0.227 | 0.0296 µM [rising, full curve, poor fit]
COc1cc(Oc2ccnc3cc(OC)c(OC)cc23)ccc1NC(=O)NC(C)c1nccs1 (stereo not drawn) | 12.3 µM [falling, single point] | 7.76 µM [falling, partial curve, poor fit] | 0.975 | -1.87 |  | 0.714 | 26.4 µM [falling, single point]
CC(O)(C#Cc1ccc2c(c1)N(c1nc(N)ncc1Cl)CC2)c1nccs1 (stereo not drawn) | 21.9 µM [falling, partial curve, poor fit] | 15.5 µM [falling, single point] | -0.0442 | 0.838 |  | -0.778 | 10.5 µM [falling, partial curve]
COc1cc(Nc2ncc(F)c(Nc3ccc4c(n3)NC(=O)C(C)(C)O4)n2)cc(OC)c1OC | 2.75 µM [falling, partial curve] | 3.89 µM [falling, partial curve, poor fit] | -0.418 | 0.289 | 0.935 µM [falling, full curve] | -0.99 | 
CO[C@H]1C(=O)[C@]2(C)[C@@H](OC)C[C@H]3OC[C@@]3(OC(C)=O)[C@H]2[C@H](OC(=O)c2ccccc2)[C@]2(O)C[C@H](OC(=O)[C@H](O)[C@@H](NC(=O)OC(C)(C)C)c3ccccc3)C(C)=C1C2(C)C | 0.0098 µM [falling, full curve] | 0.0062 µM [falling, full curve] | -2.75 | -1.72 | 0.00187 µM [rising, full curve, poor fit] | -2.47 | 
O=C(NC[C@H](O)CO)c1ccncc1Nc1ccc(I)cc1F | 3.09 µM [falling, partial curve] | 2.19 µM [falling, partial curve] | -1.31 | -0.211 |  | 0.297 | 
CCOC(=O)C1=C(C)NC2=C(C(=O)CC(C)(C)C2)C1c1ccc(-c2ccccc2)cc1 (stereo not drawn) | 17.4 µM [falling, single point] | 21.9 µM [falling, single point] | 0.526 | 0.982 |  | 0.602 | 23.5 µM [falling, partial curve]
COc1cc([C@@H]2c3cc4c(cc3[C@H](O)[C@H]3COC(=O)[C@H]23)OCO4)cc(OC)c1OC | 0.049 µM [falling, full curve] | 0.0219 µM [falling, full curve, poor fit] | -2.58 | -3.38 |  | -1.44 | 
O=C(NOCC(O)CO)c1cc(Br)c(F)c(F)c1Nc1ccc(I)cc1F (stereo not drawn) | 3.09 µM [falling, partial curve] | 8.71 µM [falling, partial curve] | -1.35 | -0.742 |  | -0.316 | 18.7 µM [falling, partial curve, poor fit]
O=c1cc(-c2cccc3c2Sc2ccccc2S3)oc(N2CCOCC2)c1 | 24.5 µM [falling, single point] | 27.5 µM [falling, single point] | 0.302 | -0.174 |  | 0.485 | 
CN(C)C(=O)c1ccc(S(=O)(=O)c2ccc(NC(=O)[C@@](C)(O)C(F)(F)F)c(Cl)c2)cc1 | 2.75 µM [falling, full curve] | 17.4 µM [falling, partial curve] | -0.0315 | -0.852 | 0.0935 µM [falling, partial curve, poor fit] | 0.701 | 
O=[N+]([O-])c1ccc(Nc2ccccc2-c2ccccc2)c2nonc12 | 11 µM [falling, partial curve, poor fit] | 13.8 µM [falling, partial curve, poor fit] | -0.0102 | -0.956 |  | -1.11 | 16.6 µM [falling, partial curve, poor fit]
CC[C@H](CC#N)OC(=O)N[C@@H](C)c1cccc(NC(=O)Nc2ccc(-c3cnco3)c(OC)c2)c1 | 0.871 µM [falling, full curve] | 1.38 µM [falling, full curve, poor fit] | 0.0278 | 0.185 |  | -0.449 | 0.418 µM [falling, full curve]
CCCCC(C)(C)[C@H](O)C=C[C@H]1[C@H](O)CC(=O)[C@H]1CC=CCCCC(=O)O | 11 µM [falling, partial curve] | 24.5 µM [falling, single point] | 0.975 | 0.403 |  | 0.531 | 16.6 µM [falling, partial curve, poor fit]
CCCC1OC2C[C@@H]3[C@H]4CCC5=CC(=O)C=C[C@]5(C)[C@H]4C(O)C[C@]3(C)[C@]2(C(=O)CO)O1 (stereo partly drawn) | 17.4 µM [falling, partial curve, poor fit] | 8.71 µM [falling, partial curve, poor fit] | 0.639 | 0.619 |  | 0.763 | 0.526 µM [falling, partial curve, poor fit]
